The source gives no read counts; variants with many changes may rest on few reads.
B1: CPEB3 Ribozyme (parent)
chain: UAACAGGGGGCCACAGCAGAAGCGUUCACGUCGCAGCCCCUGUCAGAUUCUGGUGAAUCUGCGAAUUCUGCUGUAUAUCUC

Variants of: B1
Test: self-cleavage, relative activity (ratio to wild type); higher = more cleavage; in vitro, sequencing
Summary of the method: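 Barcoded CPEB3 ribozyme mutants, produced by rounds of error-prone PCR, self-cleaved while being transcribed with T7 RNA polymerase for 5 hours at 37°C and during a subsequent 15 min DNase I step before EDTA was added. Sequencing of template-switched cDNA on Illumina gave cleaved and total reads, and DNA sequencing assigned barcodes to variants. Each variant's relative activity is its cleaved/total read fraction divided by the unmutated ribozyme's fraction, averaged across three batches. A variant needed a minimum of 5 reads.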
With A5G U26A A45G U78C the self-cleavage was 0.43. In the case of A5G U26A A57U, the self-cleavage is reported as 0.13. Work on A5G U26A A65U yielded a self-cleavage of 0.12. For A5G U26A C34U A47C U69A, the self-cleavage was 0.09. A5G U26A C34U U51C U74C showed a self-cleavage of 0.25. With A5G U26A C37A U51C U54G the self-cleavage was 0.08. For A5G U26A G30C A45U U58A, the self-cleavage was 0.27. In the case of A5G U26A G46U, the self-cleavage is reported as 0.42. A5G U26A U41C U48C U69A showed a self-cleavage of 0.6. In the case of A5G U26A U54C U60A U69C, the self-cleavage is reported as 0.21. In the case of A5G U26A U72C A75G, the self-cleavage is reported as 0.32. Work on A5G U26C A35U U74C yielded a self-cleavage of 0.29. A5G U26C A56C U58C showed a self-cleavage of 0.27. Variant A5G U26C A57G U67A U72A has a self-cleavage of 0.23. A5G U26C A64G U72A U80C showed a self-cleavage of 0.11. With A5G U26C A64U U69C the self-cleavage was 0.21. Work on A5G U26C C39G U41A U67A yielded a self-cleavage of 0.06. For A5G U26C C40A, the self-cleavage was 0.04. For A5G U26C U31C A65G, the self-cleavage was 0.48. With A5G U26C U31C G36A U74G A77U the self-cleavage was 0.06. For A5G U26C U41A G46A A64G, the self-cleavage was 0.35. For A5G U26C U43C, the self-cleavage was 0.48. In the case of A5G U26C U43C A45G U60C, the self-cleavage is reported as 0.64. In the case of A5G U26C U43C U74C, the self-cleavage is reported as 0.53. In the case of A5G U26C U43G, the self-cleavage is reported as 0.55. Variant A5G U26C U51C U80C has a self-cleavage of 0.29. In the case of A5G U26C U54A A65G U67C, the self-cleavage is reported as 0.22. A5G U26C U54A G63A U78C showed a self-cleavage of 0.14. With A5G U26C U67A U74C the self-cleavage was 0.32. Work on A5G U26C U69A yielded a self-cleavage of 0.29. Variant A5G U26C U69C has a self-cleavage of 0.26. Work on A5G U26C U74A yielded a self-cleavage of 0.35. Work on A5G U26C U76A yielded a self-cleavage of 0.44. Work on A5G U26C U80C yielded a self-cleavage of 0.5. In the case of A5G U26G C38A U41A G61C, the self-cleavage is reported as 0.11. Work on A5G U26G U49A C59G yielded a self-cleavage of 0.08. In the case of A5G U26G U49C C50U U54C U76C, the self-cleavage is reported as 0.1. A5G U26G U67C A77U U78C showed a self-cleavage of 0.07. For A5G U31A A35G A57G G61A U72A, the self-cleavage was 0.14. Work on A5G U31A A45G U48C A56U U67C A75C yielded a self-cleavage of 0.04. A5G U31A A56G U80A showed a self-cleavage of 0.49. A5G U31A A77G U80C showed a self-cleavage of 0.3. For A5G U31A C38A A45U U60C U78C, the self-cleavage was 0.08. A5G U31A U41C gave a self-cleavage of 0.46. Work on A5G U31A U41C C44U U69C U78C yielded a self-cleavage of 0.06. Work on A5G U31A U43C yielded a self-cleavage of 0.27. In the case of A5G U31A U43C A75U, the self-cleavage is reported as 0.7. A5G U31A U49C U72A U80C gave a self-cleavage of 0.11. Variant A5G U31A U58C A65C has a self-cleavage of 0.1. Work on A5G U31A U60A U66A yielded a self-cleavage of 0.31. Variant A5G U31A U69A U80C has a self-cleavage of 0.31. Variant A5G U31C A35G U41C U72A has a self-cleavage of 0.36. With A5G U31C A45G U74C the self-cleavage was 0.7. A5G U31C A45U U69A showed a self-cleavage of 0.16. Variant A5G U31C A56G A57G has a self-cleavage of 0.32. With A5G U31C A75U U78C the self-cleavage was 0.27. With A5G U31C C38A U48C U49C U51C the self-cleavage was 0.14. For A5G U31C C40U U58A U72A A75G, the self-cleavage was 0.28. Variant A5G U31C C62U has a self-cleavage of 0.25. In the case of A5G U31C C79A, the self-cleavage is reported as 0.83. A5G U31C G61A showed a self-cleavage of 0.3. A5G U31C U41A A45G C62G A64U gave a self-cleavage of 0.35. A5G U31C U41C G63U A65G gave a self-cleavage of 0.25. Work on A5G U31C U43C U51G yielded a self-cleavage of 0.13. For A5G U31C U49C A57C U80A, the self-cleavage was 0.09. A5G U31C U54A U60C U74C gave a self-cleavage of 0.19. In the case of A5G U31C U58C, the self-cleavage is reported as 0.34. For A5G U31C U60C, the self-cleavage was 0.36. A5G U31C U60C A64G gave a self-cleavage of 0.08. For A5G U31C U76C, the self-cleavage was 0.62. A5G U31C U78C showed a self-cleavage of 0.73. With A5G U31C U80C the self-cleavage was 0.28. With A5G U31G A35U U60C the self-cleavage was 0.23. A5G U31G A45G A47G U51A G63A gave a self-cleavage of 0.13. Work on A5G U31G A47G U74C yielded a self-cleavage of 0.27. With A5G U31G A64C U74A the self-cleavage was 0.21. For A5G U31G C40U G63A, the self-cleavage was 0.11. For A5G U41A A45C A75U, the self-cleavage was 0.38. In the case of A5G U41A A45C G73A, the self-cleavage is reported as 0.6. A5G U41A A45G A56G U78C showed a self-cleavage of 0.08. A5G U41A A56G U67C showed a self-cleavage of 0.11. A5G U41A A56U gave a self-cleavage of 0.11. For A5G U41A G53A C62U A75U U80C, the self-cleavage was 0.11. A5G U41A G55U U58A U67C showed a self-cleavage of 0.12. A5G U41A U43C G53C gave a self-cleavage of 0.31. For A5G U41A U49C A64U, the self-cleavage was 0.16. A5G U41A U51A A57C showed a self-cleavage of 0.09. With A5G U41A U51C U60A the self-cleavage was 0.12. For A5G U41A U54C A64G, the self-cleavage was 0.23. Work on A5G U41A U69C yielded a self-cleavage of 0.28. Work on A5G U41A U69G U80G yielded a self-cleavage of 0.28. A5G U41A U72G A77U U80A showed a self-cleavage of 0.07. For A5G U41C A57U, the self-cleavage was 0.3. A5G U41C A75U gave a self-cleavage of 0.59. For A5G U41C G55U, the self-cleavage was 0.84. A5G U41C U43A U49C U72C U80C showed a self-cleavage of 0.27. Work on A5G U41C U43C G46U A47G U80C yielded a self-cleavage of 0.09. With A5G U41C U49C U58C U60A U66C U72A the self-cleavage was 0.1. Work on A5G U41C U51A yielded a self-cleavage of 0.4. With A5G U41C U51C U60A U76C the self-cleavage was 0.11. A5G U41C U51G gave a self-cleavage of 0.12. Variant A5G U41C U54A A56U has a self-cleavage of 0.5. Work on A5G U41C U58A yielded a self-cleavage of 0.26. In the case of A5G U41C U72A, the self-cleavage is reported as 0.33. Work on A5G U41C U74A yielded a self-cleavage of 0.68. A5G U41C U80C showed a self-cleavage of 0.75. Variant A5G U41G G61A A64G has a self-cleavage of 0.22. For A5G U41G U51A A75U, the self-cleavage was 0.62. In the case of A5G U43A A45G A56G A65G, the self-cleavage is reported as 0.39. For A5G U43A A56G U69A, the self-cleavage was 0.1. For A5G U43A A64U U76G, the self-cleavage was 0.09. A5G U43A C62A U80A showed a self-cleavage of 0.14. A5G U43A U48C G55U U72C gave a self-cleavage of 0.22. With A5G U43A U49C the self-cleavage was 0.11. In the case of A5G U43A U49C U58A, the self-cleavage is reported as 0.1. With A5G U43A U51A U80A the self-cleavage was 0.5. With A5G U43A U51C U78A the self-cleavage was 0.89. Variant A5G U43C A45G U48C A64G has a self-cleavage of 0.32. Variant A5G U43C A56G U58A U66C has a self-cleavage of 0.1. A5G U43C A64G U78C showed a self-cleavage of 0.21. In the case of A5G U43C C44U U80C, the self-cleavage is reported as 0.13. Variant A5G U43C C68A has a self-cleavage of 0.26. With A5G U43C G46A U54C A56U the self-cleavage was 0.28. In the case of A5G U43C G73A, the self-cleavage is reported as 0.98. For A5G U43C U51A, the self-cleavage was 0.28. With A5G U43C U51A A64G U78A the self-cleavage was 0.42. Work on A5G U43C U51C A64C yielded a self-cleavage of 0.14. A5G U43C U51C U78A gave a self-cleavage of 0.71. A5G U43C U54A gave a self-cleavage of 0.5. For A5G U43C U58C U66C, the self-cleavage was 0.08. Variant A5G U43C U60C has a self-cleavage of 0.22. Work on A5G U43C U60C U67C yielded a self-cleavage of 0.09. For A5G U43C U60C U69A A75U, the self-cleavage was 0.08. Variant A5G U43C U66A U69C U72C has a self-cleavage of 0.12. A5G U43C U67A showed a self-cleavage of 0.32. Variant A5G U43C U69A U78A has a self-cleavage of 0.29. With A5G U43C U76C U78A the self-cleavage was 0.46. A5G U43C U78C U80A gave a self-cleavage of 0.6. In the case of A5G U43G C62A, the self-cleavage is reported as 0.66. A5G U48A A64G showed a self-cleavage of 0.29. Variant A5G U48A U69A has a self-cleavage of 0.42. Work on A5G U48C A56G yielded a self-cleavage of 0.37. In the case of A5G U48C A56G A75U, the self-cleavage is reported as 0.32. Variant A5G U48C A57G has a self-cleavage of 0.63. With A5G U48C A64U U66C the self-cleavage was 0.17. A5G U48C A64U U69C gave a self-cleavage of 0.1. For A5G U48C C68G C79U, the self-cleavage was 0.07. Work on A5G U48C G53U yielded a self-cleavage of 0.69. For A5G U48C G70U U80C, the self-cleavage was 0.17. In the case of A5G U48C U49C, the self-cleavage is reported as 0.43. Work on A5G U48C U51A U54A yielded a self-cleavage of 0.21. A5G U48C U51C A64U showed a self-cleavage of 0.11. A5G U48C U51C A65G showed a self-cleavage of 0.36. A5G U48C U51C G52U U60A A65G U78C gave a self-cleavage of 0.06. Work on A5G U48C U54A C81U yielded a self-cleavage of 0.6. A5G U48C U54C A57G U67G showed a self-cleavage of 0.13. For A5G U48C U54C U66C, the self-cleavage was 0.4. Variant A5G U48C U58A has a self-cleavage of 0.53. For A5G U48C U58G A65G, the self-cleavage was 0.44. With A5G U48C U60C the self-cleavage was 0.03. In the case of A5G U48C U67C, the self-cleavage is reported as 0.1. A5G U48C U69C U72C showed a self-cleavage of 0.15. For A5G U49A G53A A64G U74C, the self-cleavage was 0.22. For A5G U49C G70A, the self-cleavage was 0.28. Work on A5G U49C U51A U60C U67C A75U yielded a self-cleavage of 0.19. In the case of A5G U49C U66C, the self-cleavage is reported as 0.3. In the case of A5G U49C U69C, the self-cleavage is reported as 0.4.

Reference: the RNAGym collection of RNA variant scans (doi:10.1093/nar/gkz1192)
